The results in this text go back to DBAASP.

In brackets after ≈: the same amount, converted by molar mass.

Some test systems named below: Botrytis cinerea; Trichoderma viride; Ascochyta pisi; Pediococcus acidilactici; Fusarium culmorum; Micrococcus luteus; Bacillus megaterium; Fusarium haematococcum; Aerococcus viridans; Alternaria brassicicola; Neurospora crassa; Escherichia coli BL21; Escherichia coli D31.
What all share (assay): ≥ marks a high value that may be exact or a test limit, other limits are often not marked
In test [1] the test system is Pseudomonas aeruginosa PAO1.
Test [2] concerns Streptococcus pyogenes M1T1 5448.

In the case of `CC[C@H](C)[C@H](NC(=O)[C@@H](NC(=O)[C@@H]1CCCN1C(=O)[C@@H](NC(=O)[C@@H]1CCCN1C(=O)[C@H](CCCCN)NC(=O)[C@H](CCCCN)NC(=O)[C@H](CO)NC(=O)CN)C(C)C)[C@@H](C)CC)C(=O)N[C@@H](Cc1ccc(O)cc1)C(=O)N[C@H]1CSSC[C@@H](C(=O)N[C@@H](CCC(N)=O)C(=O)O)NC(=O)[C@H](CCCCN)NC(=O)CNC(=O)[C@H]([C@@H](C)O)NC(=O)[C@H](CCCN=C(N)N)NC(=O)[C@H](CCCN=C(N)N)NC(=O)[C@H](CC(N)=O)NC1=O` [GSKKPVPIIYCNRRTGKCQ], the MIC is 7.07 µM (≈ 15.2 µg/mL) in the test on Botrytis cinerea; 14.1 µM (≈ 30.4 µg/mL) against Trichoderma viride; 28.3 µM (≈ 60.7 µg/mL) with Ascochyta pisi; 28.3 µM (≈ 60.7 µg/mL) with Pediococcus acidilactici; 14.1 µM (≈ 30.4 µg/mL) with Fusarium culmorum; 7.07 µM (≈ 15.2 µg/mL) against Micrococcus luteus. Further, the MIC against Bacillus megaterium worked out at 7.07 µM (≈ 15.2 µg/mL); in the test with Fusarium haematococcum, 7.07 µM (≈ 15.2 µg/mL); in the test on Aerococcus viridans it was 3.54 µM (≈ 7.59 µg/mL); against Alternaria brassicicola it was 7.07 µM (≈ 15.2 µg/mL); in the test on Neurospora crassa, 14.1 µM (≈ 30.4 µg/mL).

Consider `CC[C@H](C)[C@H](NC(=O)[C@H](CCCCN)NC(=O)CNC(=O)[C@H](Cc1ccccc1)NC(=O)[C@H](CCCCN)NC(=O)[C@H](CCCN=C(N)N)NC(=O)[C@H](CC(C)C)NC(=O)[C@H](Cc1ccc(O)cc1)NC(=O)[C@H](CCC(=O)O)NC(=O)[C@H](CC(C)C)NC(=O)[C@H](CC(C)C)NC(=O)[C@H](CCC(=O)O)NC(=O)[C@H](CCCCN)NC(=O)[C@@H](NC(=O)[C@H](CC(C)C)NC(=O)[C@H](CCCN=C(N)N)NC(=O)[C@H](CCC(N)=O)NC(=O)[C@H](C)NC(=O)CNC(=O)[C@@H](N)Cc1c[nH]c2ccccc12)[C@@H](C)O)C(=O)N[C@@H](C)C(=O)N[C@@H](CCCN=C(N)N)C(=O)N[C@@H](CCCCN)C(=O)N[C@@H](C)C(=O)N[C@@H](Cc1c[nH]c2ccccc12)C(=O)O` [WGAQRLTKELLEYLRKFGKIARKAW], for which the MIC was 2 µM (≈ 6.13 µg/mL) in the test with Escherichia coli BL21, > 128 µM in [1] and 1 µM (≈ 3.06 µg/mL) in [2].

As for `CC[C@H](C)[C@H](NC(=O)[C@H](CCCCN)NC(=O)[C@H](C)NC(=O)[C@H](CCCN=C(N)N)NC(=O)[C@H](CCCCN)NC(=O)[C@H](CCCCN)NC(=O)CNC(=O)[C@H](CCC(=O)O)NC(=O)[C@H](CCC(N)=O)NC(=O)[C@@H](NC(=O)[C@H](CCCCN)NC(=O)[C@H](CCCCN)NC(=O)[C@H](CCCCN)NC(=O)[C@H](CC(C)C)NC(=O)[C@H](Cc1ccccc1)NC(=O)[C@H](CCC(N)=O)NC(=O)[C@H](CCCN=C(N)N)NC(=O)[C@@H](NC(=O)[C@@H](NC(=O)[C@H](CCC(=O)O)NC(=O)[C@H](CCCCN)NC(=O)CNC(=O)[C@H](C)N)[C@@H](C)O)[C@@H](C)CC)[C@@H](C)CC)C(=O)N[C@@H](C)C(=O)N[C@@H](Cc1c[nH]c2ccccc12)C(=O)O` [AGKETIRQFLKKKIQEGKKRAKIAW], the MIC against Escherichia coli BL21 stood at 2 µM (≈ 5.91 µg/mL); in [1] it was 64 µM (≈ 189 µg/mL); in test [2], 1 µM (≈ 2.96 µg/mL).

On to `CC[C@H](C)[C@H](NC(=O)[C@H](CCCCN)NC(=O)[C@H](CCCCN)NC(=O)CNC(=O)[C@H](CCC(=O)O)NC(=O)[C@H](CC(N)=O)NC(=O)[C@@H](NC(=O)[C@@H](NC(=O)[C@H](CCCCN)NC(=O)[C@H](CCCCN)NC(=O)[C@H](CC(C)C)NC(=O)[C@H](CCCN=C(N)N)NC(=O)[C@H](CC(N)=O)NC(=O)[C@H](Cc1ccccc1)NC(=O)[C@@H](NC(=O)[C@H](CCCCN)NC(=O)[C@H](CCC(=O)O)NC(=O)[C@@H](NC(=O)CNC(=O)[C@H](C)N)[C@@H](C)O)[C@@H](C)CC)[C@@H](C)O)[C@@H](C)CC)C(=O)N[C@@H](C)C(=O)N[C@@H](CCCCN)C(=O)N[C@@H](CCCN=C(N)N)C(=O)N[C@@H](Cc1c[nH]c2ccccc12)C(=O)N[C@@H](Cc1c[nH]c2ccccc12)C(=O)O` [AGTEKIFNRLKKTINEGKKIAKRWW], for which the MIC against Escherichia coli BL21 came out at 0.25 µM (≈ 0.754 µg/mL); in test [1] it was 32 µM (≈ 96.5 µg/mL); in [2], 0.125 µM (≈ 0.377 µg/mL).

`CC[C@H](C)[C@H](NC(=O)[C@H](Cc1ccccc1)NC(=O)[C@H](C)NC(=O)[C@H](CCCCN)NC(=O)[C@H](CCCCN)NC(=O)CNC(=O)[C@H](CCCN=C(N)N)NC(=O)[C@H](CCCCN)NC(=O)[C@H](CCCN=C(N)N)NC(=O)[C@H](CC(C)C)NC(=O)[C@H](CCC(=O)O)NC(=O)[C@H](CCC(=O)O)NC(=O)[C@H](CC(C)C)NC(=O)[C@H](CC(C)C)NC(=O)[C@H](Cc1ccc(O)cc1)NC(=O)[C@H](CCCCN)NC(=O)[C@@H](NC(=O)[C@H](CC(C)C)NC(=O)[C@H](C)NC(=O)[C@H](CCC(N)=O)NC(=O)[C@H](CCCN=C(N)N)NC(=O)[C@H](CCCCN)NC(=O)[C@H](C)N)[C@@H](C)O)C(=O)N[C@@H](C)C(=O)N[C@@H](Cc1c[nH]c2ccccc12)C(=O)O` [AKRQALTKYLLEELRKRGKKAFIAW]: the results for the MIC (against Escherichia coli BL21; in test [1]; in test [2]) were 4 µM (≈ 12.1 µg/mL), 16 µM (≈ 48.3 µg/mL) and 4 µM (≈ 12.1 µg/mL), respectively.

For `CC[C@H](C)[C@@H]1NC(=O)[C@@H]2CSSC[C@@H](C(=O)N[C@@H](CCCCN)C(=O)N[C@@H](CCCN=C(N)N)C(=O)N[C@@H](CCCCN)C(=O)O)NC(=O)[C@@H]3CSSC[C@H](NC(=O)[C@H](CO)NC(=O)[C@@H](NC(=O)[C@@H]4CCCN4C(=O)[C@H](CC(N)=O)NC(=O)[C@H](CC(N)=O)NC(=O)[C@@H](NC(=O)[C@H](CCCCN)NC(=O)[C@@H](N)CCCCN)[C@@H](C)CC)C(C)C)C(=O)N[C@@H](CC(C)C)C(=O)N[C@@H](CCCN=C(N)N)C(=O)N[C@@H](CCCCN)C(=O)NCC(=O)NCC(=O)N[C@@H](CCCN=C(N)N)C(=O)N[C@@H](CSSC[C@H](NC(=O)[C@H](CO)NC(=O)CNC(=O)[C@H]([C@@H](C)CC)NC(=O)[C@H](CCC(N)=O)NC(=O)[C@H](CCCN=C(N)N)NC(=O)[C@H]([C@@H](C)O)NC(=O)[C@H](CC(N)=O)NC(=O)CNC1=O)C(=O)NCC(=O)N[C@@H](C(C)C)C(=O)N1CCC[C@H]1C(=O)N[C@@H](Cc1ccccc1)C(=O)N[C@@H](CC(C)C)C(=O)N[C@@H](CCCCN)C(=O)N3)C(=O)N[C@@H](Cc1c[nH]c3ccccc13)C(=O)N[C@@H](CC(N)=O)C(=O)N[C@@H](CCCN=C(N)N)C(=O)N2` [KKINNPVSCLRKGGRCWNRCIGNTRQIGSCGVPFLKCCKRK], the minimum inhibitory concentration (MIC) in test [1] is 1.73 µM (≈ 7.99 µg/mL); in the test on Escherichia coli D31, 3.46 µM (≈ 16 µg/mL).

Broadly, the MIC is the lowest concentration that inhibits growth of the organism. A higher MIC goes with a need for much substance.
